Three substances from publication PMC12822405 can be followed below.

Changes are numbered by the printed parent chain. Results are given in words; binding and its absence hold for the method and conditions named. Binding seen in cells or lysates may run through a third protein. Some binding calls cover weakened binding; strength is not graded here.

In experiment [1] the target is T1, Tetraspanin 4 (TSPAN4) (UniProt O14817).
T1 sequence: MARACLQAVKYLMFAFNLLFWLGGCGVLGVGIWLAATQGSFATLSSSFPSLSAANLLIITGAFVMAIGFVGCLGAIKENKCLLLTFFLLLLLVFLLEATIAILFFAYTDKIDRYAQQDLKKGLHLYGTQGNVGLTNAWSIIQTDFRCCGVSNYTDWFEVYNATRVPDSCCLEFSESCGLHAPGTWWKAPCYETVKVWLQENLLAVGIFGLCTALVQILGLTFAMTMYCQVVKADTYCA
In words: co-IP; both proteins expressed in 786‐O cells; lysis buffer 20 mM Tris, 150 mM NaCl, 1 mM EDTA, 1 mM EGTA, 2.5 mM sodium pyrophosphate, 1% Triton X‐100; protein G‐sepharose and antibody 3 h at 4 °C; ITM2B^1‐115 with p10 also in TSPAN4‐knockdown cells (not affected).

Experiment [2] has as its target T1, Tetraspanin 4 (TSPAN4). The experiment in a line: pull-down; His pull‐down from 786‐O lysates on Ni‐NTA agarose, 90 min 4 °C; washed three times with 8 M urea‐containing buffer to remove non‐covalent binding; shows covalent binding only.
The target in experiment [3] is T1, Tetraspanin 4 (TSPAN4). The experiment in a line: pull-down; His pull‐down with 8 M urea washes as a2, with reducing agents (β‐ME, TCEP).
Experiment [4] addresses T2, TSPAN4^C5S (Cys5 mutant of TSPAN4) (UniProt O14817).
T2 sequence: T1 sequence with C5S
In words: pull-down; His pull‐down from 786‐O lysates on Ni‐NTA agarose, 90 min 4 °C; washed three times with 8 M urea‐containing buffer to remove non‐covalent binding; shows covalent binding only.

With “ITM2B 1–115^C54S (Cys54 mutant of the ITM2B truncation) (from UniProt Q9Y287 1-115) (domain or fragment)”, the binding entry with Tetraspanin 4 (TSPAN4) [1] and with Tetraspanin 4 (TSPAN4) [2] was “no binding” throughout.
In the case of “ITM2B^1‐115 (N‐terminal truncation of integral membrane protein 2B) (from UniProt Q9Y287 1-115) (domain or fragment)”, the binding result in the experiment with Tetraspanin 4 (TSPAN4) [3] is “no binding (condition: with reducing agents (β‐ME, TCEP))”; in the experiment with Tetraspanin 4 (TSPAN4) [1], “binds”; with Tetraspanin 4 (TSPAN4) [2], “binds”; in experiment [4], “no binding”.
With “ITM2B^116‐266 (the C‐terminal fragment after ITM2B cleavage) (from UniProt Q9Y287 116-266) (domain or fragment)”, the binding result in the experiment with Tetraspanin 4 (TSPAN4) [1] is reported as “no binding”.
